Assay [1] concerns the target CD36 (human (endogenous in THP-1 and HMDMs)) (UniProt P16671). The assay is described as follows: proximity ligation; THP-1 cells treated with peptide (LL37 or Cramp) with or without LDL; PLA between the peptide and LDL receptors (spatial correlation <40 nm); only the binder purified.
For assay [2], the target named is LDL receptor (LDLR) (human (endogenous in THP-1 and HMDMs)) (UniProt P01130). The description is as above.
For assay [3], the target named is T1, scavenger receptor class B member 1 (SR-B1) (human (endogenous in THP-1 and HMDMs)) (UniProt Q8WTV0).
T1 sequence: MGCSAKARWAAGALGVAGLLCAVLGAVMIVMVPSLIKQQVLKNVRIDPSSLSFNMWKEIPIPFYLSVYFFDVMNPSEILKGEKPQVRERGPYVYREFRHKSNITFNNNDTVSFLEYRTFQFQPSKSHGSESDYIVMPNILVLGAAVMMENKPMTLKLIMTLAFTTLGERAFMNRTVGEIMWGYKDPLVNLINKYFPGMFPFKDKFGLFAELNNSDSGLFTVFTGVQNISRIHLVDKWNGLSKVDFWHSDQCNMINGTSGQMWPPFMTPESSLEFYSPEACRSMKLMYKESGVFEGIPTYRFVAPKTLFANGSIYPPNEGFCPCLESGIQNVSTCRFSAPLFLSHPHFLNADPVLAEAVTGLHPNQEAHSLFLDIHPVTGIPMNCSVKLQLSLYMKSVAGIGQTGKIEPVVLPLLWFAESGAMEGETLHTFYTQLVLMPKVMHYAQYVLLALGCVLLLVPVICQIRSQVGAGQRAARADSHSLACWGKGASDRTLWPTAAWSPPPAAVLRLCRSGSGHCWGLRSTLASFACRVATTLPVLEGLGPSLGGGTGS
The assay is described as above.

Amino acid sequences for entries named in this document (tags omitted). Residues count along the entry.
UniProt P16671: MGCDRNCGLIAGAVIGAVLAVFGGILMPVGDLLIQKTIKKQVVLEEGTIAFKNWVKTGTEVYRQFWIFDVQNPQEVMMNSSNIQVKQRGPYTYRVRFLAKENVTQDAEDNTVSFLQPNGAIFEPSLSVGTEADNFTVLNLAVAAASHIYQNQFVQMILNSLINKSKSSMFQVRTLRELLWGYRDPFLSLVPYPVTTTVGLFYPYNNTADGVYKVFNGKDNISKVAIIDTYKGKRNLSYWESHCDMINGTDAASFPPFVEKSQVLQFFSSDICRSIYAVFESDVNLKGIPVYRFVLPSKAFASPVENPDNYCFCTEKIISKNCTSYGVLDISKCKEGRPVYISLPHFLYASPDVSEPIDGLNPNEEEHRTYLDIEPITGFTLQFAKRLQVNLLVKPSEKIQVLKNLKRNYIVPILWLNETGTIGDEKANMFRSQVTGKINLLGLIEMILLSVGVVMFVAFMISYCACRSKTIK
UniProt P04114, residues 28-4563: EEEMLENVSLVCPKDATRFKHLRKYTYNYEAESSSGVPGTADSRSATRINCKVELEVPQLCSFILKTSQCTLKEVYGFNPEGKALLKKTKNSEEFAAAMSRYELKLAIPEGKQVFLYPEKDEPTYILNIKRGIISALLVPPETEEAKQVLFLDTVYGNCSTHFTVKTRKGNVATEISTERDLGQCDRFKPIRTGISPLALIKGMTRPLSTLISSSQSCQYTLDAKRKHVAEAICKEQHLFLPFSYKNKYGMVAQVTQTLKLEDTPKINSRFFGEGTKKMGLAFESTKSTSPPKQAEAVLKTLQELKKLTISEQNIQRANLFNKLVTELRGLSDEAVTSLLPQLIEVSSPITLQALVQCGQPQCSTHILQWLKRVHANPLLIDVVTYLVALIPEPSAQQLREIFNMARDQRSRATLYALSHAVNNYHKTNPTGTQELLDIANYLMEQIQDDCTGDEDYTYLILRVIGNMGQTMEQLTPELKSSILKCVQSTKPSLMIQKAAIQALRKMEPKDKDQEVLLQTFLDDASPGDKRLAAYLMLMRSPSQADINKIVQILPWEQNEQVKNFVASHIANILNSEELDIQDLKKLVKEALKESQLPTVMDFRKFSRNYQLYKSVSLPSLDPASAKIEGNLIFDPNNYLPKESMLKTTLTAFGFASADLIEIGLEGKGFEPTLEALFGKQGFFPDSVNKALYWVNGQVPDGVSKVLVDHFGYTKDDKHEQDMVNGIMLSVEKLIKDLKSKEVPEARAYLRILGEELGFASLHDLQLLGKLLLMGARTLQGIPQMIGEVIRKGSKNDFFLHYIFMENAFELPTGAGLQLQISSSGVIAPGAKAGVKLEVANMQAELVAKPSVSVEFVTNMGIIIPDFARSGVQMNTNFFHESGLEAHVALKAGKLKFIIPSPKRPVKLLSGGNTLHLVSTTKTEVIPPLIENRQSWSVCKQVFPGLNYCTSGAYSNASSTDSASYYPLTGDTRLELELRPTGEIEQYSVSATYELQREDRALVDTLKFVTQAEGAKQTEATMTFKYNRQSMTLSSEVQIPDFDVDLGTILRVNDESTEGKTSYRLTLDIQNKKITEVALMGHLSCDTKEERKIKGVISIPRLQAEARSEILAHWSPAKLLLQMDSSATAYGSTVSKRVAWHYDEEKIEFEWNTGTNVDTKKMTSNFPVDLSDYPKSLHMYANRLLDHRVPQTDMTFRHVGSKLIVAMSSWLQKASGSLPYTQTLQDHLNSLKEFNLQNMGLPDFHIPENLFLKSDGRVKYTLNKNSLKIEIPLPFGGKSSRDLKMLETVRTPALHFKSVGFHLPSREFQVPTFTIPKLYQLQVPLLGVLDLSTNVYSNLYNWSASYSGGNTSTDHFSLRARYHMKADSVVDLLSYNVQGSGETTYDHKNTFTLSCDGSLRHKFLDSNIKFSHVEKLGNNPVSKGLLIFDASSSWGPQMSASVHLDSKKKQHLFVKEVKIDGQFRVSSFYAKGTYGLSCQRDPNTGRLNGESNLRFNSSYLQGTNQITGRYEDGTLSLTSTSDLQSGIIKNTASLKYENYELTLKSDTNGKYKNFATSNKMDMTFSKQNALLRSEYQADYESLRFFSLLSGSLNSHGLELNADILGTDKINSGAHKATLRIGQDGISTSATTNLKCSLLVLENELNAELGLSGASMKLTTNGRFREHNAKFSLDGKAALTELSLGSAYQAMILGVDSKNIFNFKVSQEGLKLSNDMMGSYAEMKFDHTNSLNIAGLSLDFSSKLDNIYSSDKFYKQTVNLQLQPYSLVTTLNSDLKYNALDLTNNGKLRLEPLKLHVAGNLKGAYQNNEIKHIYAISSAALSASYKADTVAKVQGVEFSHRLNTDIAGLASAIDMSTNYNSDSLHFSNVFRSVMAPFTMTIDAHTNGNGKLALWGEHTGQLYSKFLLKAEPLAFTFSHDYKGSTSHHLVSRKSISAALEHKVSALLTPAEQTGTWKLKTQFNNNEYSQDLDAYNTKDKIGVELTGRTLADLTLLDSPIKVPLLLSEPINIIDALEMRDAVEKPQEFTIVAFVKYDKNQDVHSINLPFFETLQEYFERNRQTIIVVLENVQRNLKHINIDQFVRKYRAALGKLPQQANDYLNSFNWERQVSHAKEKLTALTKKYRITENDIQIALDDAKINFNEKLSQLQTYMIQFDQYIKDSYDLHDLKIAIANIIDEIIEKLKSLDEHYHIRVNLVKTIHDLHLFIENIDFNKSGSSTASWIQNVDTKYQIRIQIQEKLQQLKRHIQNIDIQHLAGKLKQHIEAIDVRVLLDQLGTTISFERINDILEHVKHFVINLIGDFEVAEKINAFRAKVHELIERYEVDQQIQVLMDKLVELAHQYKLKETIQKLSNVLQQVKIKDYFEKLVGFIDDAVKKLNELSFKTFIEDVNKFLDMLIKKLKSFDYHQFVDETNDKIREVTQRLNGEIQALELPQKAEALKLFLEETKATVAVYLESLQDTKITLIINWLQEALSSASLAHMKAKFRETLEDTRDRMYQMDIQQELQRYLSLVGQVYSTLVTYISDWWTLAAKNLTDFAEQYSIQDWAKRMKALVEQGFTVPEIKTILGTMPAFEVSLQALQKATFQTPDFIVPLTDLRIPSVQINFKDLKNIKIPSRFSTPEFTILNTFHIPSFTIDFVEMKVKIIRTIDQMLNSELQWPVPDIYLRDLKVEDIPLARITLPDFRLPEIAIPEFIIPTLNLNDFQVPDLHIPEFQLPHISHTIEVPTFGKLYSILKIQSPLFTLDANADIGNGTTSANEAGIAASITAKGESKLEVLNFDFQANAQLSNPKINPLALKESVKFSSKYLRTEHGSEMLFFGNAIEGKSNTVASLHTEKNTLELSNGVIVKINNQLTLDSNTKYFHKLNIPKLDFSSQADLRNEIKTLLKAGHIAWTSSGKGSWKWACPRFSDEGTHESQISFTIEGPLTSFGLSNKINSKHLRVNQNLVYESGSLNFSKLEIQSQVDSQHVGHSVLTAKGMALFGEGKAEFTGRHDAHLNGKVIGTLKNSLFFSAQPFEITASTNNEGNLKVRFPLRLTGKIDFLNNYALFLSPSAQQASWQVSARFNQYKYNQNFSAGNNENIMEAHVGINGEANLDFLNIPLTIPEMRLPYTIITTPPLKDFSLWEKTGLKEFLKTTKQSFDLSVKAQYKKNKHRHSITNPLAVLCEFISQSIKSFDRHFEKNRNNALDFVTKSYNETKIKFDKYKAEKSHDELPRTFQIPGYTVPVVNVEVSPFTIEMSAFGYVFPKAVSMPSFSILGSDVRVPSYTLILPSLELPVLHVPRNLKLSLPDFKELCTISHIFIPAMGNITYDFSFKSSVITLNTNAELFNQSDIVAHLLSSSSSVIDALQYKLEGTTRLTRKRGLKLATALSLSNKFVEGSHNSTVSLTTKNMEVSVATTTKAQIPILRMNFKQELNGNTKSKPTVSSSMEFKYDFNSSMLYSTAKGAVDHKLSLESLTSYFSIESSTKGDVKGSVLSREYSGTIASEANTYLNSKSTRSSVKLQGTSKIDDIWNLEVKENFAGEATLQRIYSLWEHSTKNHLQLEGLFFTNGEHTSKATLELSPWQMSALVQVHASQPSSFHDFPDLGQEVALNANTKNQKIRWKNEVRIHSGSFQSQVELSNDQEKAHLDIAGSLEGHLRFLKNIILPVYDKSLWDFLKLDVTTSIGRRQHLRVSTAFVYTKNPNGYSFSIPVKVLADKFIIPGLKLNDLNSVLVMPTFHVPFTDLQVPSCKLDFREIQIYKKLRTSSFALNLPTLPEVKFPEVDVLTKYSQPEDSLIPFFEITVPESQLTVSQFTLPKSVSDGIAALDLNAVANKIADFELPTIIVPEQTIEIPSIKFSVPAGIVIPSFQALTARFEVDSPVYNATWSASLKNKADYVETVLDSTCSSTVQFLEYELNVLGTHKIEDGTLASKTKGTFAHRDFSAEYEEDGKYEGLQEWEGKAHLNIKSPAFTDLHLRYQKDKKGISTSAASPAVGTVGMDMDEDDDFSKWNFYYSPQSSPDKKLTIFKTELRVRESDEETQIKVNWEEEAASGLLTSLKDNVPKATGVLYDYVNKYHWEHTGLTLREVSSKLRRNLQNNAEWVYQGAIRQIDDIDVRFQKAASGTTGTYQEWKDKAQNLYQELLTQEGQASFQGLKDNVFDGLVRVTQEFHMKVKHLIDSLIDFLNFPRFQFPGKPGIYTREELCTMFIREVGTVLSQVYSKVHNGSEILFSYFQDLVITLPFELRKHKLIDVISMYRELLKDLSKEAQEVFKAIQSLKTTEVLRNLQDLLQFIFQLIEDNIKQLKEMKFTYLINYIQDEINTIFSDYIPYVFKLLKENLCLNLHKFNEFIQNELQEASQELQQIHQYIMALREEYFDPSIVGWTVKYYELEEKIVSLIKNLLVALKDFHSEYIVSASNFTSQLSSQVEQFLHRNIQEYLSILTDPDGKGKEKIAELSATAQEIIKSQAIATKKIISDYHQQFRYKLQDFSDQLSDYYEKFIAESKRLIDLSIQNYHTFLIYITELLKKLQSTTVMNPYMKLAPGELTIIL

Assay [4] addresses biotinylated LDL (low density lipoprotein particle) (UniProt P04114). The experiment in a line: pull-down; mixture of biotinylated LDL and peptide; pulldown of LDL, immunoblot with anti-LL37 or anti-Cramp (the paper calls it coimmunoprecipitation); phosphatidylcholine did not block the binding of LL37; both purified. (In general: Immunoblotting shows a protein as a band on a membrane.)

Results are given in words; binding and its absence hold for the method and conditions named. For some of these results: In cells and extracts the contact can be indirect. Some entries that bind do so weakly or less than the wild type.

B1: Cramp, mouse cathelicidin mature peptide (peptide, UniProt P51437 135-172)
peptide: ISRLAGLLRKGGEKIGEKLKKIGQKIKNFFQKLVPQPE
In the case of B1, the binding result in assay [1] was “binds”; in assay [2] it was “binds”; in assay [3] it was “binds”; in assay [4] it was “no binding”.

These data come from paper PMC10904043.
